# Source: PubChem BioAssay AID588855 (National Center for Advancing Translational Sciences (NCATS), 2011)
# Where “and” joins values, the source holds several entries; their conditions need not be identical. Identical values can stand only once. Hit rate of the full screen: of about 410,000 compounds, about 5,000 (1.2%) were called active. Inconclusive results, whose numbers are uncertain, are shown with a selection of clear calls. Calls come from the whole dose curve; as a rule, active = well fitted inhibition curve with a large enough effect; inconclusive = small, poorly fitted or top-dose-only effect; inactive = no such curve, though single readings can be large or run the other way. Potencies of inconclusive entries are doubtful fits and often do not repeat.
# Test: qHTS for Inhibitors of TGF-b; note: nearly all actives have a fitted effect of over 65% in size
# Details: HepG2 CAGA-GFP TGF-b/SMAD3 reporter, GFP fluorescence, 18 h, TGF-beta stimulated, 500 pg/mL final; series mostly up to 46.1 µM; activity, negative = inhibition: at the top concentration
# In short: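 HEPG2 CAGA-GFP cells (1000/well, DMEM with 1% FBS) were pre-incubated 2 h at 37 degrees C, given compound by pin tool, then stimulated with TGF-beta at 500 pg/mL final for 18 h before per-cell GFP fluorescence imaging.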
# % is set by controls: 0 for no effect and ±100 for the full control effect; potency is the fitted concentration of half-maximal effect; tags give direction and shape of the fitted curve.
Compound,"activity, negative = inhibition",Potency
COc1ccc(CCN2C(=O)NC(NS(=O)(=O)c3ccccc3)(C(F)(F)F)C2=O)cc1OC (configuration not stated),inactive: 0%,
Cc1ccc(NC(=O)NCCOCCn2c(=O)oc3ccccc32)cc1F,,"inconclusive: 8.91 µM [inhibitor, partial curve]"
CC(=O)Nc1ccc(NC(=O)c2cccc3c2-c2ccccc2C3=O)cc1,,"inconclusive: 10 µM [inhibitor, single point]"
O=C(COc1cccc(Cl)c1)Nc1ccc(N2CCOCC2)cc1,,"inconclusive: 17.8 µM [inhibitor, single point]"
O=C(Cc1cccs1)NCCN1CCOCC1,,"inconclusive: 35.5 µM [inhibitor, single point]"
Cc1ccc(Cl)cc1N1CCN(C(=O)C2CCN(c3nnc(-n4cccc4)s3)CC2)CC1,,"inconclusive: 15.8 µM [inhibitor, single point]"
O=C(CSc1nnc(Cc2csc(Nc3cccc(Cl)c3)n2)o1)N1CCc2ccccc21,,"inconclusive: 2.82 µM [inhibitor, full curve, poor fit]"
COc1ccc(-c2nn(-c3ccccc3)cc2C(=O)NC(=S)NNC(=O)c2ccncc2)cc1,,"inconclusive: 35.5 µM [inhibitor, single point]"
CC(C)N(C(=O)/C=C/c1cccc([N+](=O)[O-])c1)C(C)C,,"inconclusive: 0.316 µM [inhibitor, full curve]"
COc1ccc(Nc2nnc(SCC(=O)/C=C3/N(C)c4ccccc4C3(C)C)s2)cc1,,"inconclusive: 7.94 µM [inhibitor, partial curve, poor fit]"
O=C(/C=C/c1ccccc1)c1ccc(NC2=NCCCS2)cc1,,"inconclusive: 35.5 µM [inhibitor, partial curve, poor fit]"
COc1ccc(NC(=O)Cc2nc3ccccc3[nH]2)cc1,,"inconclusive: 25.1 µM [inhibitor, single point]"
COc1ccccc1CNc1nc(NC(C)C)nc2ccsc12,,"inconclusive: 22.4 µM [inhibitor, single point]"
CC(C)n1c(SCC(=O)Nc2ccccc2N2CCCCC2)nc2c1c(=O)n(C)c(=O)n2C,,"inconclusive: 6.31 µM [inhibitor, single point]"
CN1CCC[C@H]1CCNc1ccc2c(=O)c3ccccc3n(C)c2c1,,active: 15.8 µM
CCC(=O)OCCNc1cc(SCCC(=O)OC)c2nonc2c1[N+](=O)[O-],,"inconclusive: 35.5 µM [inhibitor, single point] and inconclusive: 22.4 µM [inhibitor, partial curve, poor fit]"
CCOc1ccc(Cn2c(CNS(=O)(=O)c3c(C)cc(C)cc3C)nc3cccnc32)cc1,,"inconclusive: 35.5 µM [inhibitor, single point]"
CN(CCOc1ccc(Cl)cc1)C(=O)c1cccc(S(=O)(=O)N2CCN(c3ccc(F)cc3)CC2)c1,,"inconclusive: 4.47 µM [inhibitor, full curve, poor fit]"
COc1ccccc1C(=O)Oc1ccc(C(C)C)cc1,,"inconclusive: 17.8 µM [inhibitor, single point]"
CC(C)c1nn2c(=O)cc(COC(=O)CNC(=O)c3ccccc3Cl)nc2s1,,"inconclusive: 1 µM [inhibitor, full curve, poor fit]"
N#CCSc1nnc(COc2cccc3ccccc23)n1-c1cccc(Cl)c1,,"inconclusive: 35.5 µM [inhibitor, single point]"
CCc1nc2c(OCC(=O)C(C)(C)C)cccn2c1N(C=O)Cc1ccc(OC)cc1,inactive: 6.33%,
OC1(C2(O)CC(c3ccccc3)ON2)CCCCC1 (configuration not stated),,"inconclusive: 22.4 µM [inhibitor, single point]"

Compound,"activity, negative = inhibition",Potency
COc1cc2cnc(-c3ccccc3)c(-c3cccc(C(F)(F)F)c3)c2cc1OC,,"inconclusive: 25.1 µM [inhibitor, single point]"
CCOC(=O)c1ccc(N=c2ssnc2Cl)cc1,,"inconclusive: 35.5 µM [inhibitor, single point]"
C=C1C(=O)c2sccc2C(c2ccc(OC)c(OC)c2)C1COC(C)=O (configuration not stated),,active: 0.708 µM
CC(C)C(NC(=O)c1c(F)cccc1F)C(=O)N1CCN(c2ncccn2)CC1 (configuration not stated),inactive: 6.71%,
O=Cc1cc(N=Nc2cccc(C(=O)O)c2)ccc1O,inactive: -13.9%,
Cc1nc(-c2ccc(S(=O)(=O)NCc3ccccn3)s2)cs1,inactive: -16.6%,
COc1cccc(/C=N/NC(=O)c2ccc(=O)n(C)c2)c1O,inactive: -0.546%,
CCn1c2ccccc2c2cc(NC(=O)C(C)Oc3ccccc3)ccc21 (configuration not stated),inactive: 2.71%,
O=C1/C(=C/c2cccnc2)CCC/C1=C\c1cccnc1,,active: 3.98 µM
CN(C)CCCNc1oc(-c2ccc(Cl)cc2)nc1S(=O)(=O)c1ccccc1,,"inconclusive: 35.5 µM [inhibitor, single point]"
CC(=O)Oc1ccc(-c2ccc(C(=O)OCC(=O)N(C)CC(=O)Nc3ccccc3Cl)cc2)cc1,,"inconclusive: 35.5 µM [inhibitor, single point]"
COCCNC(=O)C1CCCN(Cc2ccc(C#N)cc2)CC1 (configuration not stated),inactive: 4.11%,
COc1ccc(Cl)cc1C(=O)OCC(=O)NC1CCCC(C)C1C (configuration not stated),,"inconclusive: 6.31 µM [inhibitor, single point]"
O=C(Nc1ccn(CCCNCC(c2ccccc2)c2ccccc2)c(=O)n1)OCc1ccccc1,,active: 15.8 µM
CSc1ccc(S(=O)(=O)N2CCC(C(=O)NCc3ccccn3)CC2)cc1,inactive: -23.9%,
COc1ccc(C(=O)NC(=S)NC(C)C)cc1Br,,"inconclusive: 35.5 µM [inhibitor, single point]"
COc1cccc(Nc2nc(NCCO)c3ccccc3n2)c1,,active: 12.6 µM
Oc1ccc(/C=N/Nc2nccnc2Cl)cc1,inactive: -0.366%,
Cc1ccc(NC(=O)c2cc(S(=O)(=O)N3CCCc4ccccc43)ccc2F)cc1F,,"inconclusive: 35.5 µM [inhibitor, single point]"
CCc1nn(Cc2cccc(F)c2)c(=O)c2cc3cc(C)ccc3n12,,"inconclusive: 28.2 µM [inhibitor, single point]"
COc1ccc(C(=O)N2N=C(c3ccccc3)CC2(O)C(F)(F)F)cc1 (configuration not stated),,"inconclusive: 35.5 µM [inhibitor, single point]"
COc1ccc(-c2noc(N3CCC(C(=O)Nc4ccc(F)cc4F)CC3)n2)cc1,inactive: 0.563%,
Cc1sc2ncnc(N3CCC(C(=O)Nc4cc(Cl)ccc4Cl)CC3)c2c1C,inactive: 5.18%,

Compound,"activity, negative = inhibition",Potency
CC(C)(C)n1nc(-c2ccc(Cl)cc2)c2c(N)ncnc21,,"inconclusive: 501 nM [inhibitor, full curve, poor fit] and inconclusive: 2.51 µM [inhibitor, full curve, poor fit]"
COc1ccc(-c2cc3c(=O)n(CC(=O)N4CCN(C)CC4)ncn3n2)cc1,inactive: -8.4%,
Cc1ccc(CSc2ccc3nnc(CCNS(=O)(=O)c4ccc(C)cc4)n3n2)cc1,,"inconclusive: 22.4 µM [inhibitor, partial curve, poor fit]"
CN(C)c1ccc(N=Nc2ccccc2C(=O)OCC(=O)NC2CCCC2)cc1,,"inconclusive: 35.5 µM [inhibitor, single point]"
CC1CN(S(=O)(=O)c2cc(C(=O)NCc3ccncc3)ccc2Cl)CC(C)O1 (configuration not stated),inactive: 3.19%,
COc1ccccc1N1CCN(C(=O)C2CCN(C(=O)c3cccc(Cl)c3)CC2)CC1,inactive: 5.34%,
CCN(c1ccccc1)S(=O)(=O)c1ccc(OC)c(NC(=O)CNCCc2ccccc2)c1,inactive: -25.8%,
COC(=O)C1=C(C)NC(C)=C(C(=O)OC)C1c1cc2cc(C)ccc2[nH]c1=O,,"inconclusive: 35.5 µM [inhibitor, single point]"
O=C(/C=C/c1ccccc1Cl)c1ccccc(=O)c1O,,"inconclusive: 15.8 µM [inhibitor, single point]"
Oc1ccc(Br)cc1/C=N/n1c(COc2ccccc2)n[nH]c1=S,,"inconclusive: 35.5 µM [inhibitor, single point]"
OC(CNCCC1C=Nc2ccccc21)Cn1c2ccc(Cl)cc2c2cc(Cl)ccc21 (configuration not stated),,"inconclusive: 35.5 µM [inhibitor, single point]"
C/C(CC(=O)Nc1ccc(N(C)C)cc1)=N\NC(=O)c1ccc([N+](=O)[O-])cc1Cl,,"inconclusive: 5.62 µM [inhibitor, single point]"
O=C1CC[C@@H](CN(Cc2ccccn2)Cc2nc(-c3ccc(C(F)(F)F)cc3)no2)N1,inactive: 1.56%,
CC(=O)Oc1c(-c2ccc(Br)o2)oc2ccccc2c1=O,,"inconclusive: 35.5 µM [inhibitor, single point]"
Cn1c(SCC(=O)c2ccc(F)cc2)ncc(C(=O)Nc2ccccc2)c1=O,inactive: -11%,
CC(C)NC(=O)CN1C(=O)C(=O)c2ccccc21,,"inconclusive: 5.62 µM [inhibitor, single point]"
Cc1ccc(/C=C/C(=O)c2nc3ccccc3[nH]2)cc1,,"inconclusive: 35.5 µM [inhibitor, single point]"
CN(C)c1nc(N(C)C)nc(N(C#N)CN2C(=O)c3ccccc3S2(=O)=O)n1,inactive: 0%,
CC(C)c1cccc(-c2csc(C(C)(O)c3ccc(F)c(F)c3)n2)c1 (configuration not stated),,"inconclusive: 15.8 µM [inhibitor, single point]"
C[C@@H](C(=O)Nc1ccc2ccccc2c1)[C@H]1C[C@]1(C)[C@H](NC(=O)OCc1ccccc1)c1ccccc1,,"inconclusive: 35.5 µM [inhibitor, single point]"
Cc1cccc(CN2CCC(C(=O)Nc3ccc(Oc4cccnc4)cc3)CC2)c1,,"inconclusive: 1.78 µM [inhibitor, partial curve, poor fit]"
